Results taken from PubChem BioAssay AID1345082 (National Center for Advancing Translational Sciences (NCATS), 2018).
The campaign covered roughly 94,000 compounds. About 4,000 (4.3%) were called active. This list was built around the results that the source calls inconclusive (neither active nor inactive); the mix of calls is not that of the screen. The call rests on the fitted dose curve; in most records, active means well fitted inhibition curve with a large enough effect; inconclusive means small, poorly fitted or top-dose-only effect; inactive means no such curve, though single readings can be large or run the other way. A potency beside an inconclusive call is a rough fit, not a confirmed value.

assay: Cytotoxic Profiling in NIH 3T3 Cell Line of Diverse Libraries Using Quantitative High-Throughput Screening; conditions: NIH 3T3 viability, CellTiter-Glo ATP luminescence, 48-72 h; activity change, negative = cytotoxicity: at 96.7 µM (top of the series) unless noted; series mostly up to 96.7 µM; further: nearly all actives have a fitted effect of over 55% in size
Outline: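 Luminescent ATP readout (CellTiter-Glo, 10 min RT) after 48 or 72 hr compound exposure of NIH 3T3 cells seeded at 400 cells/well in 1536-well format; quantitative HTS.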
On the % scale 0 is the no-effect control and ±100 the full control effect; potency means the concentration at half of the fitted maximal effect; tags describe the fitted curve by direction and shape.

Compound | Potency | activity change, negative = cytotoxicity
Cc1cc(=O)n(CC(=O)Nc2ccc(C)c(Cl)c2)c(N2CCc3ccccc3C2)n1 | inconclusive: 70.8 µM [inhibitor, single point] | 
CC(C)Oc1ccc(C(=O)NC2CCN(c3cnn(CC4CC4)c(=O)c3)CC2)cc1 | inconclusive: 50.1 µM [inhibitor, partial curve, poor fit] | 
COc1ccc(C(=O)N[C@@H]2CCC[C@@H]2C(=O)N2CCC(Cc3ccccc3)CC2)cc1 | inconclusive: 28.2 µM [inhibitor, full curve, poor fit] | 
O=[S+]([O-])(c1ccccc1)N1CCNc2cnc(Nc3cccc(F)c3)nc2C1 | inconclusive: 79.4 µM [inhibitor, partial curve, poor fit] | 
COc1ccccc1-c1cccc(CN2CCC(NC(=O)c3ccc(C)cc3)CC2)c1 | inconclusive: 50.1 µM [inhibitor, partial curve, poor fit] | 
O=C(NCCCN1CCCC1=O)c1ccc(-c2ccc(N3CCSCC3)nc2)cc1 | inconclusive: 50.1 µM [inhibitor, partial curve, poor fit] | 
Cc1cn2nc(C(=O)Nc3ccc(C)c(F)c3)cc2c(N2CCSCC2)n1 | inconclusive: 39.8 µM [inhibitor, partial curve] | 
CN(C)Cc1cc(C[C@@H]2C[C@H](NC(=O)C3CCCC3)C2(C)C)no1 | inconclusive: 63.1 µM [inhibitor, full curve, poor fit] | 
Cc1ccc(C(=O)NC2CCN(C(=O)N3CC4CC(C3)[C@H]3CCCC(=O)N3C4)CC2)s1 (stereo partly specified) |  | inactive: -0.246%
COc1cccc(-c2cc(C3CCN(C(=O)c4ccccc4Br)CC3)[nH]n2)c1 | inconclusive: 44.7 µM [inhibitor, partial curve] | 
O=C(NCCCc1ccccc1)c1cccc2c1CCN2C(=O)C1CC1 | inconclusive: 50.1 µM [inhibitor, partial curve, poor fit] | 
Cc1ccc(N2CC(C)N(C(=O)c3cccc(OC(F)F)c3)CC2=O)cc1 (stereo unspecified) | inconclusive: 50.1 µM [inhibitor, partial curve, poor fit] | 
CCN1CC(CN(C)Cc2cn(-c3ccccc3C)nc2-c2ccc(OC)c(F)c2)CC1=O (stereo unspecified) | inconclusive: 79.4 µM [inhibitor, partial curve] | 
CN(C)c1cccc(C(=O)N2CCC3(CC2)NC(=O)N(c2cccc(Cl)c2)N3)c1 | inconclusive: 35.5 µM [inhibitor, partial curve] | 
O=C(NCC1CN(CC2CC2)CC12CN(c1ccccc1)C2)Nc1ccccc1 (stereo unspecified) | active: 100 µM | 
O=C(c1cc2ccccc2[nH]1)N1CCC2(CC1)CN(c1ncccn1)CC2CO (stereo unspecified) | inconclusive: 50.1 µM [inhibitor, partial curve, poor fit] | 
